Laboratory results as given in PubChem BioAssay AID1671188 (National Center for Advancing Translational Sciences (NCATS), 2021).
Among all 100,000 compounds or so, about 250 (0.25%) were called active. This list was built around the results that the source calls inconclusive (neither active nor inactive); the mix of calls is not that of the screen. Calls follow the shape of the dose curve; as a rule, active = well fitted inhibition curve with a large enough effect; inconclusive = small, poorly fitted or top-dose-only effect; inactive = flat fitted curve, though single readings scatter. No potency is given beside an inconclusive call; the fits are too rough.

Each compound was assayed against Alanine aminotransferase 2 (Homo sapiens) (UniProt Q8TD30) (assay: Primary qHTS assay for inhibitors of Glutamate pyruvate transaminase 2 (GPT2)). Conditions: Recombinant GPT2, coupled pyruvate oxidase/HRP Amplex Red fluorescence; activity change, negative = inhibition: at 57.7 µM (top of the series) unless noted; series mostly up to 57.7 µM.
UniProt Q8TD30, sequence (Q8TD30 whole entry, looked up): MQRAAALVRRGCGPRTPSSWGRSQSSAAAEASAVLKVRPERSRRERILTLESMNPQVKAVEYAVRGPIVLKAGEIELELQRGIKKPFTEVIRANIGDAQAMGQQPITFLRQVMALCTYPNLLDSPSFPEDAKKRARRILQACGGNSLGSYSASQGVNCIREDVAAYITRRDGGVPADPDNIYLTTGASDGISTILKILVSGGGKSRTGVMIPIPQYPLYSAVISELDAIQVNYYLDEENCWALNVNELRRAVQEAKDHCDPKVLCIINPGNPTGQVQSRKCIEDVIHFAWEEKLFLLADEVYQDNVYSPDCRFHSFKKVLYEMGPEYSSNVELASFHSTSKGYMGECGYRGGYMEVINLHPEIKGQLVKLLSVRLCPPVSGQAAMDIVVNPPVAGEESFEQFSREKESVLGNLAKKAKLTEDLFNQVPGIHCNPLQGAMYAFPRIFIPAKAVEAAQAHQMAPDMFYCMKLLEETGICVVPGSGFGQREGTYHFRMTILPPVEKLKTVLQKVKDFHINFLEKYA
Description: Assay Provider: Zhenghe John Wang Ph.D.
Case Western Reserve University, Cleveland OH
Glutamate pyruvate transaminase 2 (GPT2) catalyzes the reversible transamination of glutamate and pyruvate to provide a-ketoglutarate and alanine. We have optimized an assay for GPT2 enzymatic activity that couples pyruvate formation to detection of fluorescence using an established pyruvate oxidase/horseradish peroxidase / Amplex Red system.
Screening conditions were 250uM a-KG, 2mM L-alanine, and 10ng/uL GPT2 in […] of solution; 10uL of Amplex reaction mix (outlined below) were added so that final concentrations of Amplex reagents in 50uL were 0.2mM ThPP, 0.2U/mL PO and HRP, and 50uM Amplex.
NOTE: The volume of GPT2 in the system depends on the activity of it. The activity is different every batch. You need to test the activity before the assay. For full plate assay with automation, plate 20uL of GPT2 buffer to pin into, then add 10uL of GPT2 dilution followed immediately by 10uL of substrate dilution. 2 Columns of the plate were devoted to GPT2 buffer ([…] PH7.5, 0.0001% Tween) + 50uM AOA (known GPT2 inhibitor) to serve as a positive control. Complete the assay as normal. Amplex-red buffer: […] PH7.5, 1 mM EDTA, 1 mM MgCl2.
1. Combine a-KG and L-alanine at desired concentrations and incubate for at least 10 minutes at 37C. Stocks of L-alanine and a-KG are diluted in distilled water. However, the stocks were diluted in GPT2 buffer for the assay.
2. Prepare GPT2 dilution at the desired concentration in GPT2 buffer.
3. Plate 40uL of GPT2 dilution with 40uL of substrate dilution and let incubate for 30 minutes at room temperature.
4. Add 20uL of Amplex reaction mix prepared as follows: 1.5uL 200U/mL Horseradish Peroxidase, 200mM Thiamine Pyrophosphate, 200U/mL Pyruvate Oxidase; 7.5uL 10mM Amplex Red; 288uL Amplex Buffer.
5. Incubate for 30 minutes at room temperature in the dark, then image using AM_Amplex_Fluorescence on plate reader nearest the window.
% is scaled to controls: 0 for no effect and ±100 for the full control effect; potency is read from the fitted curve at half-maximal effect; tags tell the direction and shape of the fitted curve.
Also: nearly all actives have a fitted effect of over 60% in size.

Row | SMILES | Potency | outcome | activity change, negative = inhibition
1 | CN1C(=O)Cc2ccccc2C1C(=O)NCc1ccc(F)cc1 (stereo not given) | inconclusive [inhibitor, partial curve] | – | –
2 | O=C(CCc1cc2n(n1)CCCNC2)NCc1csc2c1CCCC2 | inconclusive [inhibitor, full curve, poor fit] | – | –
3 | CCC(=O)N(C1CCOCC1)C1CCN(S(=O)(=O)c2ccc(OC)cc2)CC1 | – | inactive | –
4 | O=C(C1CCCN([S+](=O)([O-])c2cccs2)C1)N1CCC(N2CCCC2=O)CC1 (stereo not given) | inconclusive [inhibitor, single point] | – | –
5 | CN1C(=O)COC[C@@H]1[C@H](O)c1ccc(NC(=O)c2ccccc2)cc1 | – | – | inactive: -6.3% [at 88.5 µM]
6 | CNC(=O)c1noc([C@@H]2CC(F)(F)CN2C(=O)c2ccc(C)cc2)n1 | – | inactive | –
7 | COc1cc(CN2CCCC3(C2)CN(C)C(=O)O3)ccc1OCC(N)=O (stereo not given) | inconclusive [inhibitor, single point] | – | –
8 | NC(=O)c1cccc2cn(-c3ccc(C4CCCNC4)cc3)nc12 (stereo not given) | inconclusive [inhibitor, single point] | – | –
9 | Cc1cc(C(=O)N2CCCCCNC(=O)[C@H]3C[C@H](C(=O)N4CCc5ccccc5C4)C[C@H]32)n(C)n1 | inconclusive [inhibitor, single point] | – | –
10 | COc1cccc(-c2ccc(CN3CCCC(NC(=O)c4ccc(C)cc4)C3)cc2)c1 (stereo not given) | inconclusive [inhibitor, single point] | – | –
11 | O=C(NC1CC1)c1ccc2nnc(-c3cc[nH]c3)n2c1 | – | inactive [at 88.5 µM] | –
12 | CCCCCC(=O)N[C@H]1C[C@@H](Cc2cc(COC(=O)CCCCC)on2)C1(C)C | – | – | inactive: 1.45% [at 88.5 µM]
13 | Clc1ccc(C2Cn3nnc(-c4nc(C5CCCCC5)no4)c3CO2)cc1 (stereo not given) | inconclusive [inhibitor, single point] | – | –
14 | O=C(O)c1ccc(CN2Cc3[nH]cnc3C[C@H]2c2nc(-c3ccncc3)no2)cc1 | inconclusive [inhibitor, full curve] | – | –
15 | CC(=O)N1Cc2ccccc2CC2(CCN(CC3CCOCC3)C2)C1 (stereo not given) | – | inactive | –
16 | Brc1ccc(CN2CCC(c3nc4ccncc4[nH]3)C2)cc1 (stereo not given) | inactive | – | –
17 | CN(C)C(=O)[C@@H]1CN(Cc2cccnc2)C[C@H]1CO | inconclusive [inhibitor, single point] | – | –
18 | O=C(c1ccccc1F)N1CCC(C(=O)N2CCC(c3nc4ncccc4[nH]3)CC2)C1 (stereo not given) | – | inactive | –

Row | SMILES | Potency | outcome | activity change, negative = inhibition
19 | CCn1cnnc1-c1nn(C)c2c1CN(C(=O)Cc1cccc(F)c1)CC2 | – | inactive | –
20 | Oc1ccc(C2=Cc3ccc(O)cc3OC2)cc1 | inconclusive [inhibitor, single point] | – | –
21 | CCc1nnc([C@@H]2CC(F)(F)CN2C(=O)Cn2cccn2)o1 | inconclusive [inhibitor, single point] | – | –
22 | Cc1nnc(NC(=O)NC2CCN(Cc3ccccc3)CC2)s1 | inconclusive [inhibitor, full curve, poor fit] | – | –
23 | CN1C[C@@H](NC(=O)c2ccc(C#N)cc2)C[C@H]1c1nc(-c2cncnc2)no1 | – | inactive [at 88.5 µM] | –
24 | O=C(NC1CCCc2c1[nH]c1ccccc21)c1ccccc1 (stereo not given) | – | – | inactive: 2.55%
25 | CCC1Oc2ccc(NC(=O)Cc3ccc(OC)cc3)cc2CN(Cc2ccc(OC)cc2)C1=O (stereo not given) | inconclusive [inhibitor, single point] | – | –
26 | O=C(Nc1cccc(-c2cccc(Cl)c2)c1)C1CCN(Cc2cccc(O)c2)CC1 | inconclusive [inhibitor, partial curve, poor fit] | – | –
27 | O=C(NCC1CCNC1)C1CCN(c2nc(-c3ccccc3)nc3c2CCC3)CC1 (stereo not given) | inconclusive [inhibitor, single point] | – | –
28 | COc1cc([C@@H]2c3cc4c(cc3[C@H](O)[C@@H](CO)[C@@H]2C(=O)NCC2CC2)OCO4)cc(OC)c1OC | – | inactive | –
29 | O=C(Nc1ccc(N2CCOCC2)cc1)C1(CCO)CCN(Cc2ccccc2)C1 (stereo not given) | inconclusive [inhibitor, single point] | – | –
30 | CN(C)[C@@H]1C[C@@H](CO)N(Cc2cc(=O)n3c4c(cccc24)CCC3)C1 | inconclusive [inhibitor, single point] | – | –
31 | O=C(c1nccs1)c1cccnc1N1CCNCC(O)C1 (stereo not given) | inconclusive [inhibitor, single point] | – | –
32 | CCN(CC)C(=O)c1cc2c(n1C)CCN(Cc1ccc(F)cc1)C2 | – | – | inactive: 3.47%
33 | C[C@@]1(O)CCN(Cc2ccccc2F)C[C@H]1N1CCCC1 | – | inactive | –
34 | O=C(NCc1cccs1)c1cc(-c2cccc(C(F)(F)F)c2)c2nncn2n1 | – | inactive | –
35 | O=C(c1cc(-c2cccc(C(F)(F)F)c2)c2cccn2n1)N1CCOCC1 | inconclusive [inhibitor, partial curve, poor fit] | – | –
